The source gives many values for each of these; only a part stands here.
Test: Tissue distribution by quantitative whole-body autoradiography (QWBA)
Format: in vivo, male Sprague Dawley and Long-Evans rats
Details: 15 mg/kg IV
Procedure: The study utilized 4 groups of male SD rats (albino), and 3 groups of male LE rats (pigmented); a total of 39 rats. All animals were obtained from Hilltop Lab Animals, Inc. (Scottdale, Pa.). […] Rats in Group 5 were administered a single 2-h IV infusion of [^14C]brincidofovir at a target dose of 2 mg/kg. […] Three dosing formulations (one for high dose IV, one for low dose IV, and one for PO dose) were prepared at QPS on the day of dosing. The IV formulation for Groups 1, 2, 3, and 4 contained a vehicle of 10 mM sodium phosphate buffer in 5% dextrose solution at pH 8.0(±0.1).
Each animal, at their respective termination time points, was euthanized for QWBA analysis immediately after blood collection. One rat per time point per Group was euthanized as listed below.
The blood samples were maintained on wet ice (approximately 4° C.) and then centrifuged to obtain plasma within 1 h of the blood collection time. Centrifuge settings were recorded in the study notebook. Duplicate aliquots of plasma (0.050 mL) were analyzed for radioactivity using direct counting by LSC, and residual plasma was stored at approximately −70° C. and was saved for possible future analysis under a separate study protocol. Residual red blood cells were discarded as radioactive waste.
The pinna, distal limbs, hair, and tail were removed from each frozen carcass and each frozen carcass was embedded in an aqueous suspension of approximately 2% (w/v) carboxymethylcellulose and frozen into a block. The blocks were stored at approximately −20° C. prior to sectioning. Each blocked carcass was mounted on the object stage of a cryomicrotome (Leica CM3600 Cryomacrocut, Nussloch, Germany and Vibratome 9800, St. Louis, Mo.) maintained at approximately −20° C. and internal standards (3), which were plasma fortified with [^14C]-glucose at one concentration (approximately 0.05 μCi/mL), were placed into the frozen blocks, prior to sectioning, and were used for section thickness quality control. A number of whole-body sections (approximately 40 μm thick) were taken in the sagittal plane at various levels of interest using a whole-body cryomicrotome set at −20° C. Sagittal sections (20-50 μm thick) of frozen carcasses were exposed to phosphor imaging plates. Regions of images in tissues were converted to concentrations using standards. All of the major tissues, organs, and biological fluids were represented.
Tissue concentration data was determined for the following tissues and/or contents: adipose (brown and white), adrenal gland, bile (in duct), blood (cardiac), bone, bone marrow, brain (cerebrum, cerebellum, medulla), cecum (and contents), large intestine (and contents), epididymis, esophagus, eye (uvea and lens), Harderian gland, heart, kidney (cortex and medulla), liver, lung, lymph node, pancreas, pituitary gland, prostate gland, salivary gland, seminal vesicles, skeletal muscle, skin (pigmented and non-pigmented), small intestine (and contents), stomach (gastric mucosa and contents), spleen, spinal cord, testis, thymus, thyroid, and urinary bladder (and contents).
The imaging plate and sections were placed in light-tight exposure cassettes, in a copper-lined lead safe, for a 4-day exposure at room temperature. […] Quantification was performed by image densitometry using MCD image analysis software (v. 7.0, Interfocus Imaging Ltd) and a standard curve constructed from the integrated response [i.e., Molecular Dynamics Counts per square millimeter (MDC/mm^2)] and the nominal concentrations of the ^14C-calibration standards. The concentrations of radioactivity were expressed as the μg equivalents of [^14C]brincidofovir per gram sample (μg equiv/g). A lower limit of quantification (LLOQ) was applied to the data (See section 6.7.4).
Tissue concentrations that fell below the LLOQ were identified as being below the quantification limit (BQL). Tissue areas that were not visualized on autoradiographic images were identified as no sample (NS) and reported as BQL.

SMILES: CCCCCCCCCCCCCCCCOCCCOP(=O)(O)CO[C@H](CO)Cn1ccc(N)nc1=O [[^14C]brincidofovir]
- Concentration of radioactivity (Heart, 1 h, LE rat): 1.190 μg equiv/g tissue
- Concentration of radioactivity (Heart, 2 h, LE rat): 2.401 μg equiv/g tissue
- Concentration of radioactivity (Heart, 4 h, LE rat): 0.997 μg equiv/g tissue
- Concentration of radioactivity (Heart, 8 h, LE rat): 0.815 μg equiv/g tissue
- Concentration of radioactivity (Heart, 24 h, LE rat): 0.226 μg equiv/g tissue
- Concentration of radioactivity (Heart, 72 h, LE rat): 0.173 μg equiv/g tissue
- Concentration of radioactivity (Heart, 96 h, LE rat): 0.118 μg equiv/g tissue
- Concentration of radioactivity (Heart, 168 h, LE rat): 0.062 μg equiv/g tissue
- Concentration of radioactivity (Heart, 840 h, LE rat): BQL (BQL = Value is below the LLOQ)
- Concentration of radioactivity (Kidney Cortex, 1 h, LE rat): 36.713 μg equiv/g tissue
- Concentration of radioactivity (Kidney Cortex, 2 h, LE rat): 97.276 μg equiv/g tissue
- Concentration of radioactivity (Kidney Cortex, 4 h, LE rat): 76.678 μg equiv/g tissue
- Concentration of radioactivity (Kidney Cortex, 8 h, LE rat): 56.528 μg equiv/g tissue
- Concentration of radioactivity (Kidney Cortex, 24 h, LE rat): 19.453 μg equiv/g tissue
- Concentration of radioactivity (Kidney Cortex, 72 h, LE rat): 4.070 μg equiv/g tissue
- Concentration of radioactivity (Kidney Cortex, 96 h, LE rat): 1.041 μg equiv/g tissue
- Concentration of radioactivity (Kidney Cortex, 168 h, LE rat): 0.330 μg equiv/g tissue
- Concentration of radioactivity (Kidney Cortex, 840 h, LE rat): BQL (BQL = Value is below the LLOQ)
- Concentration of radioactivity (Kidney Medulla, 1 h, LE rat): 8.092 μg equiv/g tissue
- Concentration of radioactivity (Kidney Medulla, 2 h, LE rat): 26.987 μg equiv/g tissue
- Concentration of radioactivity (Kidney Medulla, 4 h, LE rat): 25.330 μg equiv/g tissue
- Concentration of radioactivity (Kidney Medulla, 8 h, LE rat): 22.989 μg equiv/g tissue
- Concentration of radioactivity (Kidney Medulla, 24 h, LE rat): 7.117 μg equiv/g tissue
- Concentration of radioactivity (Kidney Medulla, 72 h, LE rat): 1.478 μg equiv/g tissue
- Concentration of radioactivity (Kidney Medulla, 96 h, LE rat): 0.648 μg equiv/g tissue
- Concentration of radioactivity (Kidney Medulla, 168 h, LE rat): 0.138 μg equiv/g tissue
- Concentration of radioactivity (Kidney Medulla, 840 h, LE rat): BQL (BQL = Value is below the LLOQ)
- Concentration of radioactivity (Large Intestine (contents), 1 h, LE rat): BQL (BQL = Value is below the LLOQ)
- Concentration of radioactivity (Large Intestine (contents), 2 h, LE rat): 2.223 μg equiv/g tissue
- Concentration of radioactivity (Large Intestine (contents), 2 h, SD rat): BQL (BQL = Value is below the LLOQ)
- Concentration of radioactivity (Large Intestine (contents), 4 h, LE rat): 137.870 μg equiv/g tissue
- Concentration of radioactivity (Large Intestine (contents), 8 h, LE rat): 235.751 μg equiv/g tissue
- Concentration of radioactivity (Large Intestine (contents), 24 h, LE rat): 48.798 μg equiv/g tissue
- Concentration of radioactivity (Large Intestine (contents), 24 h, SD rat): 35.809 μg equiv./g
- Concentration of radioactivity (Large Intestine (contents), 72 h, LE rat): 3.347 μg equiv/g tissue
- Concentration of radioactivity (Large Intestine (contents), 96 h, LE rat): 0.273 μg equiv/g tissue
- Concentration of radioactivity (Large Intestine (contents), 168 h, LE rat): 0.103 μg equiv/g tissue
- Concentration of radioactivity (Large Intestine (contents), 168 h, SD rat): 0.374 μg equiv./g
- Concentration of radioactivity (Large Intestine (contents), 840 h, LE rat): BQL (BQL = Value is below the LLOQ)
- Concentration of radioactivity (Large Intestine, 1 h, LE rat): 1.455 μg equiv/g tissue
- Concentration of radioactivity (Large Intestine, 2 h, LE rat): 5.497 μg equiv/g tissue
- Concentration of radioactivity (Large Intestine, 2 h, SD rat): 3.581 μg equiv./g
- Concentration of radioactivity (Large Intestine, 4 h, LE rat): 2.338 μg equiv/g tissue
- Concentration of radioactivity (Large Intestine, 8 h, LE rat): 3.071 μg equiv/g tissue
- Concentration of radioactivity (Large Intestine, 24 h, LE rat): 3.064 μg equiv/g tissue
- Concentration of radioactivity (Large Intestine, 24 h, SD rat): 2.019 μg equiv./g
- Concentration of radioactivity (Large Intestine, 72 h, LE rat): 0.993 μg equiv/g tissue
- Concentration of radioactivity (Large Intestine, 96 h, LE rat): 0.545 μg equiv/g tissue
- Concentration of radioactivity (Large Intestine, 168 h, LE rat): 0.278 μg equiv/g tissue
- Concentration of radioactivity (Large Intestine, 168 h, SD rat): 0.129 μg equiv./g
- Concentration of radioactivity (Large Intestine, 840 h, LE rat): BQL (BQL = Value is below the LLOQ)
- Concentration of radioactivity (Liver, 1 h, LE rat): 126.516 μg equiv/g tissue
- Concentration of radioactivity (Liver, 2 h, LE rat): 229.669 μg equiv/g tissue
- Concentration of radioactivity (Liver, 4 h, LE rat): 118.543 μg equiv/g tissue
- Concentration of radioactivity (Liver, 8 h, LE rat): 53.166 μg equiv/g tissue

From patent US20170368082A1, “FORMULATIONS OF BRINCIDOFOVIR” (priority 2016, published 2017)
